According to PubChem BioAssay AID1347073 (National Center for Advancing Translational Sciences (NCATS), 2019):
Hit rate of the full screen: of about 45,000 compounds, about 200 (0.44%) were called active. Another 7% or so got no clear call; they are omitted. Calls follow the shape of the dose curve; as a rule, active = well fitted activation curve with a large enough effect; inconclusive = small, poorly fitted or top-dose-only effect; inactive = no such curve, though single readings can be large or run the other way. This is one part of the list.

Experiment: qHTS of TDP-43 Inhibitors: NCGC Sytravon Library Screen; also: 0% is about no effect; nearly all actives have a fitted effect of over 55% in size
Settings: yeast TDP-43 toxicity rescue, BacTiter-Glo growth, 24 h; series mostly up to 46.1 µM; growth rescue (activation): at the top concentration
Method in brief: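 TDP-43-expressing yeast, pregrown in raffinose, seeded at OD600 0.02 in galactose medium with compound for 24 hr at 30 deg C. Growth read by BacTiter-Glo luminescence, so rescue of toxicity appears as activation.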

Structure (SMILES)	growth rescue (activation)
COc1cccc(CC(=O)Nc2ccc(F)c(S(=O)(=O)N3CCOCC3)c2)c1	inactive: -12.5%
Cc1ccc(C)c(NC(=O)CN(C)C(=O)c2cccc(S(=O)(=O)N3CCCC3)c2)c1	inactive: -2.62%
CC(C)C(NS(=O)(=O)c1cccs1)C(=O)NCc1ccccc1Cl (centres undefined)	inactive: -21.5%
Brc1ccc(-c2ccc(/C=N/Nc3nc(N4CCOCC4)nc(N4CCOCC4)n3)o2)cc1	inactive: 11.5%
CCNC(=O)C1(C)CCN(Cc2ccccc2C#N)C1 (centres undefined)	inactive: -9.12%
Cc1ccc(C(=O)NC(=O)CSc2nncn2C)cc1	inactive: 10.1%
Cc1ccc(S(=O)(=O)N/N=C/c2c(F)cccc2Cl)cc1	inactive: 34.7%
CCOC(=O)c1cnc(-c2ccccc2)nc1-c1ccccc1	inactive: 8.8%
O=C(Nc1sc2c(c1C(=O)O)CCCCC2)c1ccccc1	inactive: -92.5%
CC1Cc2ccccc2N1Cc1ccc([N+](=O)[O-])cc1 (centres undefined)	inactive: 3.84%
COc1ccccc1NC(=S)NN1CCN(C)CC1	inactive: 10.5%
Cc1ccc(N(CC(O)CN2C(=O)NC(C)(C)C2=O)S(=O)(=O)c2ccc(C)cc2)cc1 (centres undefined)	inactive: -6.15%
O=C(Nc1ccccc1C(F)(F)F)C1CCN(C(=O)c2cccs2)CC1	inactive: 12.5%
O=c1c2ccc(Cl)cc2nc2n1CC/C2=C\c1cccc(O)c1	inactive: 16.2%
O=C(Nc1ccc(F)cc1)c1ccccc1NS(=O)(=O)N1CCCC1	inactive: 8.61%
COc1ccc(OC)c(CC(=O)N2CCc3cc(OC)c(OC)cc3C2)c1	inactive: -6.18%
O=C(c1cc(-c2ccccc2)on1)N1CCc2ccccc2C1	inactive: 6.76%
O=C(Cn1cncn1)N/N=C/c1ccc(Cl)cc1	inactive: 9.6%
COc1ccc(OCC(=O)Nc2ccc(Cl)cc2)cc1	inactive: 17.5%
CC(C)n1cc(CN2CCC(Oc3ccc(C(=O)N4CCCCC4)cc3)CC2)cn1	inactive: 21.6%
O=S(=O)(c1c(F)cccc1F)N1CCN(C(=S)NCc2ccc3c(c2)OCO3)CC1	inactive: 13.1%
O=C(CSc1nncs1)NNC(=O)c1ccccc1Br	inactive: -3.87%

Structure (SMILES)	growth rescue (activation)
CCOc1cc(CN2CCN(S(=O)(=O)Cc3ccccc3)CC2)ccc1OC	inactive: -13.9%
NNC(=O)CCN1CCN(C(c2ccccc2)c2ccccc2)CC1	inactive: 7.97%
CSc1nc(C)c2c(n1)N(c1ccc(C(F)(F)F)cc1)CC2	inactive: 19.2%
CCC(CC)C(=O)Nc1nc(-c2ccc3c(c2)CCN3C(=O)C2CC2)c(C)s1	inactive: -0.637%
COC(=O)CN(c1ccc(Cl)cc1C)S(C)(=O)=O	inactive: 6.54%
CCCC(C)c1nnc(NC(=O)C2CC(=O)N(c3ccc(OCC)cc3)C2)s1 (centres undefined)	inactive: 5.56%
O=C(CSc1n[nH]c(-c2ccccc2)n1)N1CCCC1	inactive: 11.8%
CC(C)n1nnnc1SCC(=O)Nc1ccccc1N1CCOCC1	inactive: 33.7%
COc1ccc(C(=O)CCC(=O)NCCc2c[nH]c3ccccc23)cc1OC	inactive: -3.98%
CCCN(CCC)CC(O)Cn1cc(/C=C/C(=O)c2ccc(OC)cc2)c2ccccc21 (centres undefined)	inactive: 11.3%
O=c1[nH]ncn1-c1ccc(Br)cc1	inactive: 7.63%
c1cc(CNCC2CCCO2)ccn1 (centres undefined)	inactive: 3.37%
COc1ccc(-c2ccnc3cc(C(=O)O)nn23)cc1	inactive: 7.57%
O=C(NCCc1ccccc1)C1CCN(Cc2ccccc2F)CC1	inactive: -10.7%
COc1ccccc1N(C)S(=O)(=O)c1ccc(C(=O)NC2CCCCCC2)cc1	inactive: 29%
CC(C)(C)c1nc2ccc(NS(=O)(=O)c3ccc(F)c(F)c3F)cc2[nH]1	inactive: -5.77%
COC(=O)Cn1cc([N+](=O)[O-])nc1C	inactive: -5.66%
Cc1ccc(S(=O)(=O)NNC(=O)CCC(=O)Nc2ccc(C)cc2C)cc1	inactive: -2.06%
O=C(COc1ccccc1)Nc1c(Cl)ccc2nsnc12	inactive: 12.7%
Cc1ccccc1S(=O)(=O)c1cc(C#N)c(=O)[nH]c1N	inactive: 2.32%
COc1ccc(C(=O)OCC(=O)NCCN2C(=O)CSC2=O)cc1[N+](=O)[O-]	inactive: -11.6%
Cn1c(=O)c(C(=O)COc2ccc(F)cc2Cl)c(N)n(Cc2ccccc2)c1=O	inactive: 4.49%

Structure (SMILES)	growth rescue (activation)
O=C(/C=C/c1ccccc1Cl)N(Cc1ccc(Cl)cc1)C1CCS(=O)(=O)C1 (centres undefined)	inactive: -15.6%
COc1ccc(CCNC(=O)c2cc3c(=O)n4cccc(C)c4nc3n(Cc3ccco3)c2=N)cc1OC	inactive: -8.93%
Cc1ccc(S(=O)(=O)CC(=O)Nc2nnc(C)s2)cc1	inactive: 3.17%
CC(Oc1ccccc1Cl)C(=O)Nc1ccc(S(=O)(=O)N2CCN(C)CC2)cc1 (centres undefined)	inactive: 14.4%
Cc1noc(NS(=O)(=O)c2ccc(N/C=C\C(=O)c3cccs3)cc2)c1C	inactive: -18.2%
Cn1cnnc1SCC(=O)NNC(=O)c1ccc(Cl)cc1	inactive: -2.11%
COc1ccc(CCN(C)C2CCCN(C(=O)c3ccnn3C)C2)cc1OC (centres undefined)	inactive: 8.83%
Cc1ccc2c(c1)C(O)(C1COC(C)(C)CC1=O)C(=O)N2C (centres undefined)	inactive: -4.89%
N#Cc1ccsc1NC(=O)COC(=O)c1cc(Br)ccc1O	inactive: 0.171%
O=C(Nc1ccc2c(c1)OCO2)c1csc([C@@H]2O[C@H](CO)[C@H](O)[C@H](O)[C@H]2O)n1	inactive: 12.9%
CCOC(=O)C1(CCc2ccccc2)CCN(C(=O)c2cnc(C)cn2)CC1	inactive: 12.7%
Cc1[nH]n(-c2ccccc2)c(=O)c1N=Nc1ccc2c(c1)OCO2	inactive: 4.16%
Cc1ccc(CC(=O)Nc2ccc(F)c([N+](=O)[O-])c2)cc1C	inactive: 18.3%
COc1ccc(NC(=O)C2(S(=O)(=O)c3ccc(C)cc3)CC2)cc1OC	inactive: 0.969%
COc1ccc(CCn2c(=N)c(C(=O)NCc3ccco3)cc3c(=O)n4cccc(C)c4nc32)cc1	inactive: -5.28%
COc1ccc(-c2cc(C(=O)NC3CCCCC3)no2)cc1OC	inactive: 8.07%
COc1cc(/C=C/C(=O)NCC(=O)N2CCC(N(C)CCN3CCOCC3)CC2)ccc1OC(C)C	inactive: 6.68%
COc1ccc2nc(C)cc(SCC(=O)NNC(=O)COc3cccc4ccccc34)c2c1	inactive: 7.3%
Cc1ccc(NC(=O)C(c2ccc(Cl)cc2Cl)N2CCCC2)cc1 (centres undefined)	inactive: 15.8%
O=C1NCC(COc2ccc(Cl)cc2)O1 (centres undefined)	inactive: 2.59%
O=C(O)Cn1nnnc1SCC(=O)Nc1ccc(F)cc1F	inactive: 10.6%
Cc1cc(C)nc(NC(=O)Cc2cccs2)n1	inactive: 4.58%

Structure (SMILES)	growth rescue (activation)
CCCS(=O)(=O)NC(=O)C1(C)CCN(C(=O)c2cc(F)cc(F)c2)C1 (centres undefined)	inactive: 7.58%
CNC(=O)C1CC(=O)N(c2ccc(OCC(=O)Nc3ccc(F)cc3)cc2)C1 (centres undefined)	inactive: 13.6%
COC(=O)c1ccccc1OC(=O)c1cc2ccccc2oc1=O	inactive: 14.4%
CCNc1nc(NC(C)(C)C)nc(N2CCCCC2)n1	inactive: -13.2%
COc1ccc(NC(=S)NCc2ccc3c(c2)OCO3)cc1	inactive: 25.2%
COc1ccc(OCCN2CCN(C(=O)c3ccc(OC(F)F)c(OC)c3)CC2)cc1	inactive: -2.86%
CCc1nc2c(OCC(=O)c3ccc(F)cc3)cccn2c1N(C)C(=O)c1cccs1	inactive: 19.9%
Cn1c(-c2ccc(F)cc2)cnc1SCC(=O)NNC(=O)Cc1ccccc1	inactive: -11.5%
Cc1ccc(N(C(=O)c2csnn2)C(C(=O)NC2CCCC2)c2ccncc2)c(C)c1 (centres undefined)	inactive: -13%
Cc1cccc(OCC(=O)Nc2ccc3oc(=O)ccc3c2)c1C	inactive: 9.29%
Cc1ccc(/C=N/NC(=O)c2ccncc2)cc1	inactive: 6.88%
Nc1nc(SC2c3cccc4cccc(c34)C2NS(=O)(=O)c2ccccc2)n[nH]1 (centres undefined)	inactive: 14.1%
Cc1ccc(NC(=O)c2nc(S(=O)(=O)Cc3ccccc3)ncc2Cl)cc1	inactive: -79.5%
CCCN1C(=O)/C(=c2\sc3nc(=O)c(Cc4ccc(C)cc4)nn3c2=O)c2ccccc21	inactive: -26.8%
CC(=O)Nc1ccc(SCc2csc(C)n2)cc1	inactive: 9.8%
COc1ccc(-c2nn(-c3ccccc3)cc2/C=N/NC(N)=S)cc1OC	inactive: 9.2%
NC(=O)CSc1n[nH]c(-c2ccco2)n1	inactive: 0.938%
Cc1cc(C)c(S(=O)(=O)Nc2ccc(N(C)C)cc2)c(C)c1-n1cnnn1	inactive: 1.22%
CC(C)Cc1nc(NCCN2CCOCC2)c(C#N)c2c1COC(C)(C)C2	inactive: 9.8%
O=C(CNC(=O)c1ccccc1)Nc1cccc(C(F)(F)F)c1	inactive: 27.1%
CCOC(=O)C1=C(C(F)(F)F)Nc2ncnn2C1c1cccc(OC)c1OC (centres undefined)	inactive: 0.475%
CCn1cc(/C=N/NC(=O)COc2cccc3cccnc23)c2ccccc21	inactive: 13.1%

Structure (SMILES)	growth rescue (activation)
Cc1ccc(-c2nc(CN3CCN(C(=O)C4CCCO4)CC3)cs2)cc1 (centres undefined)	inactive: 10.7%
Cc1ccc(CNC(=O)COc2ccc(C)nc2[N+](=O)[O-])cc1	inactive: 5.89%
COc1cccc(NC(=O)COC(=O)c2ccc3ccccc3n2)c1	inactive: -6.07%
CCNc1nc(N2CCCC2)nc(N2CCCC2)n1	inactive: 4.2%
COc1cc(NC(=O)CSc2ncnc3sc4c(c23)CCCC4)c(C(=O)O)cc1OC	inactive: 21%
O=C(c1ccc(Cl)c(S(=O)(=O)N2CCOCC2)c1)N1CCCC1	inactive: 17.7%
CC(=O)Nc1ccc(S(=O)(=O)Nc2ccc3c(c2)OCO3)cc1	inactive: 4.59%
CCc1ccccc1N(CC(=O)NC1CCCCC1)C(=O)CCC(=O)Nc1ccccn1	inactive: -4.98%
CCOc1ccc(/C=N/OCC(=O)Nc2cc(C)on2)cc1	inactive: 3.32%
COc1cc(C(=O)NCCCNc2nc3c(C)cc(C)cc3cc2C#N)cc(OC)c1OC	inactive: 2.8%
CCOC(=O)c1nnn(-c2nonc2N)c1CN(CC)CC	inactive: -19.7%
O=C(CSc1nnc(-c2ccco2)o1)NC(=O)C1COc2ccccc2O1 (centres undefined)	inactive: -10.2%
Cn1ccsc1=NC(=O)c1cccc(C#N)c1	inactive: 13%
CCC(=O)N1CCc2cc(S(=O)(=O)N(CC)c3cccc(C)c3)ccc21	inactive: 17.2%
COc1ccc2cc(C3c4cc(OC)c(OC)cc4CCN3C(=O)c3ccco3)c(=O)[nH]c2c1 (centres undefined)	inactive: -16.6%
CCN(CC)S(=O)(=O)c1ccc2c(c1)N(CC(=O)NCC(C)c1ccccc1)C(=O)CO2 (centres undefined)	inactive: 4.97%
COc1ccc(C(=O)N2CCCCC2c2cc(C(=O)Nc3ccc(F)c(Cl)c3)no2)cc1 (centres undefined)	inactive: 26.8%
CCOC(=O)/C=C/C(=O)N1CCN(C(=O)/C=C/C(=O)OCC)CC1	inactive: 6.53%
CCOc1cccc(/C=C/c2ccc3cccc(O)c3n2)c1OC	inactive: 19.2%
CCN(CC)C(=O)c1sc(NC(=O)c2ccncc2)c(C(=O)OC)c1C	inactive: 10.4%
O=C(COC(=O)Cn1cnc2ccccc2c1=O)NCC12CC3CC(CC(C3)C1)C2	inactive: -1.15%
